This is one part of the list.
B1: chr13:38882223:38882324:+|3pUTR|ENSG00000150893|msi1|FALSE|unique (ssRNA)
RNA: GGGAGUUCUACAGUCCGACGAUCAGAAAAAUAAGGUCAGGAGAAAAAGAAUAAUGCCUACAGAUUAUCCUUCAGAUGCUGGCUAGAAUCCCCUUUGACUUCUAGCCAUAAGCUGGCCACAUUGGACAUCUUGGUCACUGCAGACAACAGAGGAUUGAGCAUCA
B2: chr7:7573188:7573293:+|CDS|ENSG00000164654|unk|total|mutant (ssRNA)
RNA: GGGAGUUCUACAGUCCGACGAUCCCAUAUUUCCACGAUCGUGUUGCUUCCUUCUAUGAAGGUCAGGUUGCAAUAUGGGAUCUCCGAAAAUUUGAGAAGCCAGUUUUGACAUUGACUGAGCAACCAAAACCCUUAACAAAAGUACAACAGAGGAUUGAGCAUCA
B3: ENSG00000198589:be:win_4051|CDS|ENSG00000198589|bound_else_gene|NA|bound_elsewhere_windowed (ssRNA)
RNA: GGGAGUUCUACAGUCCGACGAUCGUCAUCUUUGUACACAACACAAUUCAUCUCAUCUCUCAAGUGAUGGACAAUAUGGUCAUGGCUUGUGGGGGUAUACUGCCAUUGCUUUCAGCUGCUACAUCGGCUACACAUGAACUGGAACAACAGAGGAUUGAGCAUCA
B4: chr7:101138022:101138407:+|3pUTR|ENSG00000106366|msi1|FALSE|unique (ssRNA)
RNA: GGGAGUUCUACAGUCCGACGAUCCUCUUGGUGGGGAGGGGUGUACCUAAAUAUUUAUCAUAUCCUUGCCCUUGAGUGCUUGUUAGAGAGAAAGAGAACUACUAAGGAAAAUAAUAUUAUUUAAACUCGCUCCUAGUGUUUCUUCAACAGAGGAUUGAGCAUCA
B5: chr10:32268825:32268926:-|3pUTR|ENSG00000120616|unk|FALSE|unique (ssRNA)
RNA: GGGAGUUCUACAGUCCGACGAUCUGGGGACUUGACAGCAAUGCUCAUCUCUCAUGCUUCAAUUUUUCUUUUCUUACUGUUAAUAGGAAAAAAAUCAACAUCUGUAAAUUAAGAAUACAGCAAUUAUCUGUACAGUACUGCAUACAACAGAGGAUUGAGCAUCA
B6: ENSG00000109180:stop:overlap|stop_codon|ENSG00000109180|stop_codon|NA|stop_codon (ssRNA)
RNA: GGGAGUUCUACAGUCCGACGAUCCAACAGAGGAAGAAAGGAGAGUCUUCGCAGAAUGCAAUGAUGAAAGCUUCUGGUUCAGAUAGAUGGGGUUUCACCGUGUUAACCAGGAUGGUCUCCAUCUCCUGACCUUGUGAUCCACCUCAACAGAGGAUUGAGCAUCA
B7: chr1:231019617:231019718:-|3pUTR|ENSG00000182118|msi1|FALSE|unique (ssRNA)
RNA: GGGAGUUCUACAGUCCGACGAUCGCAGGGAGUUCUCCGCGGAUGCAUGGUGGCAGUCUGCUUUGAUGGCAGCAGUUUCUGCUUAGGUGACCUAGAGGUCCUCAGCAGUAUCCUCCACACCUAUUUAUUGAGGUGCACCUGCUGCAACAGAGGAUUGAGCAUCA
B8: chr2:1633824:1633925:-|3pUTR|ENSG00000130508|msi1|FALSE|unique (ssRNA)
RNA: GGGAGUUCUACAGUCCGACGAUCAUUUAAUUCUUUUAAAAUGAAAAAUUGGUGCUACUAUUAAAUUGCACAGUUGAAUCAUUUAGGCGCCUAAAUUGAUUUUGCCUCCCAACACCAUUUCUUUUUAAAUAAAGCAGGAUACCUCAACAGAGGAUUGAGCAUCA
B9: chr10:72062367:72062468:-|3pUTR|ENSG00000107742|unk|total|mutant (ssRNA)
RNA: GGGAGUUCUACAGUCCGACGAUCCCUUGAUCCACACUGCUCCUGGCAGAGUGAGUCACCCAAAGGCCCCUUCGGCCUCCUUGCCGCUGUUUUCUUUCCUUUUGUUGUUGGUUUUAAAAUACAUUCACACACAAAUACAAAUUGCAACAGAGGAUUGAGCAUCA
B10: chr3:170465896:170466000:-|3pUTR|ENSG00000013293|unk|FALSE|unique (ssRNA)
RNA: GGGAGUUCUACAGUCCGACGAUCACUUAGGUAGUUGCAUUCCAUGAGAUCACAUUUCACUUCUGAACCUUAUUCCUUGGGGCUAGCUCACUUUCAGAGGUGUAUUUUUUUUUCCUGUUAUUUCCCAGAGUAGUUUCACUGAAGCAACAGAGGAUUGAGCAUCA
B11: ENSG00000070961:be:win_3101|CDS|ENSG00000070961|bound_else_gene|NA|bound_elsewhere_windowed (ssRNA)
RNA: GGGAGUUCUACAGUCCGACGAUCCAGAACUUUCAAUAGAACAGUGGCUAUGGUCAAUAUUCCUAGGAAUGGGAACAUUACUCUGGGGCCAGCUUAUUUCAACAAUUCCAACUAGCCGUUUAAAAUUCCUCAAAGAAGCUGGUCCAACAGAGGAUUGAGCAUCA
B12: ENSG00000124766:be:win_3451|3pUTR|ENSG00000124766|bound_else_gene|NA|bound_elsewhere_windowed (ssRNA)
RNA: GGGAGUUCUACAGUCCGACGAUCAGAGGCUUUAAAACUGGUGCAAUUACAGCAAAAAGGGAUUCUGUAGCUUUAACUUGUAAACCACAUCUUUUUUGCACUUUUUUUAUAAGCAAAAACGUGCCGUUUAAACCACUGGAUCUACAACAGAGGAUUGAGCAUCA
B13: chr1:233671823:233671924:+|3pUTR|ENSG00000135750|msi1|total|mutant (ssRNA)
RNA: GGGAGUUCUACAGUCCGACGAUCUGCUGCUGUGGUCCGAAGCAGAUUUUAUACUUUUAACUGGAAACUUUGGGGUUUGCAUUCCGAUCAUUCCGCUGAUGGCUAAACCGCAAAAUUUAUAUUCCGAAGCAAAAAAAAAAAGCACAACAGAGGAUUGAGCAUCA
B14: chr15:90998672:90999054:-|three_prime_utr|ENSG00000184056|control|control|control (ssRNA)
RNA: GGGAGUUCUACAGUCCGACGAUCAUAACCAAGUGUCCACCAACUACCUGCUAAGAGCCGGGAGCAUGGAACGUGUUGGGAUUUAGAGAACAUUAUCUGAGAAAAGAGUUCACUUCCUGCUCCCAGGAUAUUUCUCUUUUCUGUCAACAGAGGAUUGAGCAUCA

These binders were tested against MSI1 full-length (mouse, UniProt Q61474 1-362) (assay: nsRBNS (natural sequence RNA bind-n-seq); RBNS binding buffer (assumed for nsRBNS): 25 mM Tris pH 7.5, 150 mM KCl, 3 mM MgCl2, 0.01% Triton X-100, 500 ug/ml BSA, 20 U/ml SUPERase-In, 4 C; UNK is unkempt and MSI1 is Musashi-1; names of the RNAs are library labels; protein concentration not given here; high values mean tight binding).
Sequence of UniProt Q61474 (Q61474 whole entry): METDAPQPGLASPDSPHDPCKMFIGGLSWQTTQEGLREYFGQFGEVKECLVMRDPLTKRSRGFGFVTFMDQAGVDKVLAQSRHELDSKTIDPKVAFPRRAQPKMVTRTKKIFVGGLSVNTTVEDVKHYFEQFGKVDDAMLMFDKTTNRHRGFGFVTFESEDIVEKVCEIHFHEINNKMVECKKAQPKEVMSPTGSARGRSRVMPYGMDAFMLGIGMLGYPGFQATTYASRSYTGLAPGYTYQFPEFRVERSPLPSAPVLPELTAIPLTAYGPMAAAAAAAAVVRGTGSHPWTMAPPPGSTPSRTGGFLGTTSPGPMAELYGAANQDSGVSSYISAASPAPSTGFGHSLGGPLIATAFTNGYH

Binder	binding signal [enrichment R]
B1	0.232
B2	0.2
B3	0.513
B4	2.12
B5	0.754
B6	1.04
B7	0.432
B8	0.464
B9	0.376
B10	10
B11	0.672
B12	1.5
B13	0.297
B14	0.326

Reference: paper PMC12136788
